The text below walks through data of publication PMC12820563.

The list shows a part of the results. The list includes weakly bound sequences.

In the test the target is T1, MBP-FoxP3dN (UniProt Q99JB6).
T1 sequence: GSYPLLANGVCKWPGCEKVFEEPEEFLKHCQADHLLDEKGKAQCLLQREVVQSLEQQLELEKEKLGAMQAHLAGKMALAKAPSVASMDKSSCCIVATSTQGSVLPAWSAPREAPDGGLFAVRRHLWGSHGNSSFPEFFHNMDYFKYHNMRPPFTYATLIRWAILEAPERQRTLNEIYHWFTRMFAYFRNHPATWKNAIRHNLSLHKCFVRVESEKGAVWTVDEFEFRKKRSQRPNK
Description: PD-seq (MBP pull-down with sequencing). The following applies: 20 mM Tris-HCl pH 7.5, 100 mM NaCl, 1.5 mM MgCl2, 0.4 uM protein, 0.1 uM dsDNA library, 30 min, room temperature, amylose pull-down; high values mean tight binding; double strand, one strand shown.
For “GATGATTGTTCTCCCAGCTGATGAATTTAAAAGCTCGAGTAAACAAATTTTCCTAATCTTTCTGTTCAAGCGCCATCTAC”, the binding signal (RPM ratio (pull-down/input)) amounted to 0.237.
Regarding “GATGATTGTTCTCCCAGCTGATGAATTGCTCCGATCGAGTAAACAAATTTTCCTAATCTTTCTGTTCAAGCGCCATCTAC”, the binding signal (RPM ratio (pull-down/input)) was 0.349.
For “GATGATTGTTCTCCCAGCTGATGAATTGTTGTAGTCGAGTAAACAAATTTTCCTAATCTTTCTGTTCAAGCGCCATCTAC”, the binding signal (RPM ratio (pull-down/input)) is 2.5.
For the sequence “GATGATTGTTCTCCCAGCTGATGAATTGAACGAGTCGAGTAAACAAATTTTCCTAATCTTTCTGTTCAAGCGCCATCTAC”, the binding signal (RPM ratio (pull-down/input)) worked out at 0.257.
Take “GATGATTGTTCTCCCAGCTGATGAATTATACCCCTCGAGTAAACAAATTTTCCTAATCTTTCTGTTCAAGCGCCATCTAC”: the binding signal (RPM ratio (pull-down/input)) came out at 0.373.
In the case of “GATGATTGTTCTCCCAGCTGATGAATTTGAGCTCTCGAGTAAACAAATTTTCCTAATCTTTCTGTTCAAGCGCCATCTAC”, the binding signal (RPM ratio (pull-down/input)) was determined as 0.363.
As for “GATGATTGTTCTCCCAGCTGATGAATTACGTGTGTCGAGTAAACAAATTTTCCTAATCTTTCTGTTCAAGCGCCATCTAC”, the binding signal (RPM ratio (pull-down/input)) was determined as 1.4.
With “GATGATTGTTCTCCCAGCTGATGAATTCATCTCGTCGAGTAAACAAATTTTCCTAATCTTTCTGTTCAAGCGCCATCTAC” the figure was 0.361; with “GATGATTGTTCTCCCAGCTGATGAATTTTCCGAGTCGAGTAAACAAATTTTCCTAATCTTTCTGTTCAAGCGCCATCTAC”, 0.207.
With “GATGATTGTTCTCCCAGCTGATGAATTGTTTCACTCGAGTAAACAAATTTTCCTAATCTTTCTGTTCAAGCGCCATCTAC” the figure was 0.782.
On to “GATGATTGTTCTCCCAGCTGATGAATTTCCCGCCTCGAGTAAACAAATTTTCCTAATCTTTCTGTTCAAGCGCCATCTAC”, for which the binding signal (RPM ratio (pull-down/input)) was 0.44.
As for “GATGATTGTTCTCCCAGCTGATGAATTCTTGCCCTCGAGTAAACAAATTTTCCTAATCTTTCTGTTCAAGCGCCATCTAC”, the binding signal (RPM ratio (pull-down/input)) came to 0.351.
On to “GATGATTGTTCTCCCAGCTGATGAATTCCGTCTTTCGAGTAAACAAATTTTCCTAATCTTTCTGTTCAAGCGCCATCTAC”, for which the binding signal (RPM ratio (pull-down/input)) is 0.717.
Consider “GATGATTGTTCTCCCAGCTGATGAATTGTCCTTTTCGAGTAAACAAATTTTCCTAATCTTTCTGTTCAAGCGCCATCTAC”, for which the binding signal (RPM ratio (pull-down/input)) turned out to be 0.39.
As to “GATGATTGTTCTCCCAGCTGATGAATTTATTACGTCGAGTAAACAAATTTTCCTAATCTTTCTGTTCAAGCGCCATCTAC”, the binding signal (RPM ratio (pull-down/input)) is 1.22.
As to “GATGATTGTTCTCCCAGCTGATGAATTAGCTTCATCGAGTAAACAAATTTTCCTAATCTTTCTGTTCAAGCGCCATCTAC”, the binding signal (RPM ratio (pull-down/input)) came to 0.544.
Consider “GATGATTGTTCTCCCAGCTGATGAATTTGCATTTTCGAGTAAACAAATTTTCCTAATCTTTCTGTTCAAGCGCCATCTAC”, for which the binding signal (RPM ratio (pull-down/input)) was found to be 5.38.
As for “GATGATTGTTCTCCCAGCTGATGAATTGATCTCATCGAGTAAACAAATTTTCCTAATCTTTCTGTTCAAGCGCCATCTAC”, the binding signal (RPM ratio (pull-down/input)) was 0.374.
“GATGATTGTTCTCCCAGCTGATGAATTCCATTTCTCGAGTAAACAAATTTTCCTAATCTTTCTGTTCAAGCGCCATCTAC”: the binding signal (RPM ratio (pull-down/input)) turned out to be 0.561.
With “GATGATTGTTCTCCCAGCTGATGAATTGGGTGATTCGAGTAAACAAATTTTCCTAATCTTTCTGTTCAAGCGCCATCTAC” the figure was 0.949; with “GATGATTGTTCTCCCAGCTGATGAATTTATTCTGTCGAGTAAACAAATTTTCCTAATCTTTCTGTTCAAGCGCCATCTAC”, 0.533.
With “GATGATTGTTCTCCCAGCTGATGAATTACTCCGTTCGAGTAAACAAATTTTCCTAATCTTTCTGTTCAAGCGCCATCTAC”, the binding signal (RPM ratio (pull-down/input)) was determined as 0.302.
On to “GATGATTGTTCTCCCAGCTGATGAATTACACAGTTCGAGTAAACAAATTTTCCTAATCTTTCTGTTCAAGCGCCATCTAC”, for which the binding signal (RPM ratio (pull-down/input)) is 0.552.
With “GATGATTGTTCTCCCAGCTGATGAATTTTATGAGTCGAGTAAACAAATTTTCCTAATCTTTCTGTTCAAGCGCCATCTAC” the figure was 1.67; with “GATGATTGTTCTCCCAGCTGATGAATTGCAAACGTCGAGTAAACAAATTTTCCTAATCTTTCTGTTCAAGCGCCATCTAC”, 0.843.
Consider “GATGATTGTTCTCCCAGCTGATGAATTCTAACACTCGAGTAAACAAATTTTCCTAATCTTTCTGTTCAAGCGCCATCTAC”, for which the binding signal (RPM ratio (pull-down/input)) is 0.577.
With “GATGATTGTTCTCCCAGCTGATGAATTTCCAGACTCGAGTAAACAAATTTTCCTAATCTTTCTGTTCAAGCGCCATCTAC” the figure was 0.194; with “GATGATTGTTCTCCCAGCTGATGAATTACCCTGATCGAGTAAACAAATTTTCCTAATCTTTCTGTTCAAGCGCCATCTAC”, 0.253.
For the sequence “GATGATTGTTCTCCCAGCTGATGAATTCTCTAACTCGAGTAAACAAATTTTCCTAATCTTTCTGTTCAAGCGCCATCTAC”, the binding signal (RPM ratio (pull-down/input)) was determined as 0.211.
For the sequence “GATGATTGTTCTCCCAGCTGATGAATTGCTTTCATCGAGTAAACAAATTTTCCTAATCTTTCTGTTCAAGCGCCATCTAC”, the binding signal (RPM ratio (pull-down/input)) was 1.04.
As to “GATGATTGTTCTCCCAGCTGATGAATTCCGAGGATCGAGTAAACAAATTTTCCTAATCTTTCTGTTCAAGCGCCATCTAC”, the binding signal (RPM ratio (pull-down/input)) worked out at 0.216.
With “GATGATTGTTCTCCCAGCTGATGAATTCGAATCTTCGAGTAAACAAATTTTCCTAATCTTTCTGTTCAAGCGCCATCTAC”, the binding signal (RPM ratio (pull-down/input)) turned out to be 0.511.
For the sequence “GATGATTGTTCTCCCAGCTGATGAATTGGAGAGGTCGAGTAAACAAATTTTCCTAATCTTTCTGTTCAAGCGCCATCTAC”, the binding signal (RPM ratio (pull-down/input)) was determined as 0.195.
Regarding “GATGATTGTTCTCCCAGCTGATGAATTAAGCGATTCGAGTAAACAAATTTTCCTAATCTTTCTGTTCAAGCGCCATCTAC”, the binding signal (RPM ratio (pull-down/input)) was found to be 1.09.
As to “GATGATTGTTCTCCCAGCTGATGAATTGGCTTGTTCGAGTAAACAAATTTTCCTAATCTTTCTGTTCAAGCGCCATCTAC”, the binding signal (RPM ratio (pull-down/input)) amounted to 2.49.
“GATGATTGTTCTCCCAGCTGATGAATTTAAAACCTCGAGTAAACAAATTTTCCTAATCTTTCTGTTCAAGCGCCATCTAC”: the binding signal (RPM ratio (pull-down/input)) is 0.227.
As to “GATGATTGTTCTCCCAGCTGATGAATTCGACAACTCGAGTAAACAAATTTTCCTAATCTTTCTGTTCAAGCGCCATCTAC”, the binding signal (RPM ratio (pull-down/input)) was determined as 0.474.
With “GATGATTGTTCTCCCAGCTGATGAATTAGAATAGTCGAGTAAACAAATTTTCCTAATCTTTCTGTTCAAGCGCCATCTAC” the figure was 0.342.
On to “GATGATTGTTCTCCCAGCTGATGAATTGTATACCTCGAGTAAACAAATTTTCCTAATCTTTCTGTTCAAGCGCCATCTAC”, for which the binding signal (RPM ratio (pull-down/input)) worked out at 3.63.
As for “GATGATTGTTCTCCCAGCTGATGAATTTCAGCTCTCGAGTAAACAAATTTTCCTAATCTTTCTGTTCAAGCGCCATCTAC”, the binding signal (RPM ratio (pull-down/input)) is 0.337.
